Measured values: ChEMBL document CHEMBL4689842, “EUbOPEN Chemogenomics Library wave 1” (2021)

Assays:
Type in all cases: toxicity, cell-based
Fibroblast = test: Multiplex assay against human fibroblast
How it was run: (§1)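 With compound added, live cells were imaged on a CQ1 microscope at 37°C and 5% CO2; staining with Hoechst33342, BioTracker Green Microtubule Cytoskeleton Dye, MitoTracker Red and Annexin V Alexa Fluor 680 had been done at seeding. The CellPathfinder machine-learning gating scheme split cells into Hoechst high-intensity objects or normal cells, normal cells into healthy, pyknosed or fragmented nuclei, and pyknosed cells into mitotic or apoptotic. The tubulin, mitochondrial-mass and membrane-permeability phenotypes are per cents of healthy-nucleus cells.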

HEK-293T = test: Multiplex assay against HEK293T; settings: human; how it was run: as §1;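 as to Population Tubulin-Different-Phenotype (%): share of the cells with healthy nuclei that show this phenotype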
U2OS = test: Multiplex assay against U2OS; settings: human; how it was run: as §1
[1] = 12 h, 10 µM, compound concentration 10 uM, replicate 1
[2] = 12 h, 10 µM, compound concentration 10 uM, replicate 2
[3] = 24 h, 10 µM, compound concentration 10 uM, replicate 1
[4] = 24 h, 10 µM, compound concentration 10 uM, replicate 2
[5] = 12 h, 1 µM, compound concentration 1 uM, replicate 2
[6] = 24 h, 1 µM, compound concentration 1 uM, replicate 1
[7] = 24 h, 1 µM, compound concentration 1 uM, replicate 2
[8] = 12 h, 1 µM, compound concentration 1 uM, replicate 1

For `NC(=O)Nc1cc(-c2cccc(F)c2)sc1C(=O)N[C@H]1CCCNC1` [AZD-7762], the “Population Tubulin-Different-Phenotype (%)” value (Fibroblast; [1]) was 22% and 5%, the “Population Hoechst High Intensity Objects (%)” value (Fibroblast; [2]) was 5% and 32% and the “Population Mitochondria Different-Phenotype (%)” value (Fibroblast; [2]) was 31% and 0%. For the same molecule, the “Population Pyknosed Nuclei (%)” value (Fibroblast; [2]) was 52% and 12%, the “Population Membrane Permeable-Phenotype (%)” value (Fibroblast; [3]) was 12% and 3% and the “Population Mitotic Cells (%)” value (Fibroblast; [3]) was 62% and 17%. For the same molecule, the “Population Tubulin-Different-Phenotype (%)” value (Fibroblast; [3]) was 26% and 1%, the “Population Fragmented Nuclei (%)” value (Fibroblast; [4]) was 59% and 16% and the “Population Mitochondria Different-Phenotype (%)” value (Fibroblast; [4]) was 3% and 80%. The “Population Mitotic Cells (%)” value (Fibroblast; [4]) was 42% and 7%, the “Population Tubulin-Different-Phenotype (%)” value (Fibroblast; [4]) was 15% and 90% and the “Population Apoptotic (%)” value (HEK-293T; [1]) was 74% and 21%. The “Population Healthy Nuclei (%)” value (HEK-293T; [1]) was 12% and 54%, the “Population Mitochondria Different-Phenotype (%)” value (HEK-293T; [1]) was 88% and 11% and the “Population Mitotic Cells (%)” value (HEK-293T; [1]) was 25% and 78%. For the same molecule, the “Population Tubulin-Different-Phenotype (%)” value (HEK-293T; [1]) was 50% and 8%, the “Total Cell Count” value (HEK-293T; [1]) was 177 and 740 and the “Total Cell Count” value (HEK-293T; [2]) was 179 and 1099. The “Population Healthy Nuclei (%)” value (HEK-293T; [3]) was 40% and 7%, the “Population Mitochondria Different-Phenotype (%)” value (HEK-293T; [3]) was 23% and 100% and the “Total Cell Count” value (HEK-293T; [3]) was 701 and 184. The “Population Healthy Nuclei (%)” value (HEK-293T; [4]) was 6% and 34%, the “Total Cell Count” value (HEK-293T; [4]) was 175 and 1041 and the “Population Mitochondria Different-Phenotype (%)” value (U2OS; [2]) was 31% and 8%. The “Population Tubulin-Different-Phenotype (%)” value (U2OS; [2]) was 21% and 4%, the “Population Fragmented Nuclei (%)” value (U2OS; [3]) was 44% and 13% and the “Population Membrane Permeable-Phenotype (%)” value (U2OS; [3]) was 15% and 92%. The “Population Tubulin-Different-Phenotype (%)” value (U2OS; [3]) was 7% and 85% and the “Population Mitotic Cells (%)” value (U2OS; [4]) was 7% and 29%.
For `COc1cc2nccc(Oc3ccc(NC(=O)Nc4cc(C)on4)c(Cl)c3)c2cc1OC.O`, the “Population Mitochondria Different-Phenotype (%)” value (Fibroblast; [5]) was 5% and 42%, the “Population Pyknosed Nuclei (%)” value (Fibroblast; [5]) was 7% and 32% and the “Population Tubulin-Different-Phenotype (%)” value (Fibroblast; [6]) was 49% and 8%. For the same molecule, the “Population Mitochondria Different-Phenotype (%)” value (Fibroblast; [7]) was 5% and 55%, the “Population Pyknosed Nuclei (%)” value (Fibroblast; [7]) was 7% and 27% and the “Population Tubulin-Different-Phenotype (%)” value (Fibroblast; [7]) was 15% and 55%. For the same molecule, the “Population Membrane Permeable-Phenotype (%)” value (HEK-293T; [8]) was 24% and 4%, the “Population Mitochondria Different-Phenotype (%)” value (HEK-293T; [8]) was 31% and 9% and the “Population Tubulin-Different-Phenotype (%)” value (HEK-293T; [8]) was 92% and 15%. For the same molecule, the “Population Membrane Permeable-Phenotype (%)” value (HEK-293T; [5]) was 22% and 3%, the “Population Mitochondria Different-Phenotype (%)” value (HEK-293T; [5]) was 48% and 8% and the “Population Tubulin-Different-Phenotype (%)” value (HEK-293T; [5]) was 99% and 12%. For the same molecule, the “Population Mitochondria Different-Phenotype (%)” value (HEK-293T; [6]) was 53% and 5%, the “Population Tubulin-Different-Phenotype (%)” value (HEK-293T; [6]) was 95% and 18% and the “Population Apoptotic (%)” value (HEK-293T; [7]) was 18% and 4%. The “Population Fragmented Nuclei (%)” value (HEK-293T; [7]) was 3% and 29%, the “Population Mitochondria Different-Phenotype (%)” value (HEK-293T; [7]) was 58% and 1% and the “Population Pyknosed Nuclei (%)” value (HEK-293T; [7]) was 7% and 2%. The “Population Tubulin-Different-Phenotype (%)” value (HEK-293T; [7]) was 99% and 14%, the “Total Cell Count” value (HEK-293T; [7]) was 964 and 3175 and the “Population Hoechst High Intensity Objects (%)” value (U2OS; [8]) was 4% and 1%. For the same molecule, the “Population Mitochondria Different-Phenotype (%)” value (U2OS; [8]) was 51% and 15%, the “Population Tubulin-Different-Phenotype (%)” value (U2OS; [8]) was 100% and 8% and the “Population Fragmented Nuclei (%)” value (U2OS; [6]) was 11% and 2%. For the same molecule, the “Population Hoechst High Intensity Objects (%)” value (U2OS; [6]) was 4% and 1%, the “Population Mitochondria Different-Phenotype (%)” value (U2OS; [6]) was 79% and 11% and the “Population Pyknosed Nuclei (%)” value (U2OS; [6]) was 25% and 4%. The “Population Tubulin-Different-Phenotype (%)” value (U2OS; [6]) was 100% and 10%, the “Population Mitochondria Different-Phenotype (%)” value (U2OS; [7]) was 90% and 22% and the “Population Tubulin-Different-Phenotype (%)” value (U2OS; [7]) was 97% and 22%.
For `CN1C(=O)c2sccc2N(C)c2nc(Nc3ccc(S(N)(=O)=O)cc3)ncc21`, the “Population Apoptotic (%)” value (Fibroblast; [2]) was 57% and 0%, the “Population Hoechst High Intensity Objects (%)” value (HEK-293T; [3]) was 4% and 17% and the “Population Apoptotic (%)” value (U2OS; [2]) was 10% and 33%. The “Population Apoptotic (%)” value (U2OS; [4]) was 36% and 0%.

The source holds more than one record for some entries. This list holds those alone. An entry can have further records. Values given together are repeated measurements in other runs, samples, wells, individuals or studies.
